Experimental data: the supplement of paper PMC10126150
Values marked as one replicate rest on one cluster of the flow cell; about a third of the high ones do not repeat.

system: ATP; test: switch fluorescence ratio, 500 uM ATP over buffer (Cy3 cluster intensity, sum of 5 cycles each) (fold (ratio)); higher = stronger signal-on switching upon ATP binding; sequences stand for … in TCGTCGGCAGCGTCAGATGTGTATAAGAGACAGTTTTTTTTTTTTTTTTTTTTTTTTT…TC; settings: aptamer strand: ATP DNA aptamer (quencher-CACCTGGGGGAGTATTGCGGAGGAAGG + anchor), 100 nM annealed; ATP concentration: 500 uM; one replicate
In short: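 Values give the fluorescence ratio for each switch-domain sequence, averaged from per-cluster ratios of summed target-cycle to summed buffer-cycle Cy3 intensity. The Cy3-labelled switching-strand clusters sat on a modified Illumina MiSeq flow-cell, were annealed to 100 nM quencher-labelled ATP aptamer, and were imaged in selection buffer, then after 15 min with 500 uM ATP at 22 °C. Five cycles ran with NaOH stripping and re-annealing between them, and clusters outside 100-1000 RFU were excluded.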
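Also: ATP exposure 15 min at 22 °C before imaging.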

| Sequence | switch fluorescence ratio |
| --- | --- |
| ACAGTTGAAT | 1.01 |
| ACAGTTGAC | 1.03 |
| ACAGTTTAG | 0.999 |
| ACATAATTCA | 1.03 |
| ACATACACTG | 1.27 |
| ACATACATCC | 1.27 |
| ACATACGTTC | 1.33 |
| ACATAGGCTT | 1.01 |
| ACATATCGTT | 1.03 |
| ACATCAACGC | 1.12 |
| ACATCACAAG | 1.23 |
| ACATCAGACC | 1.04 |
| ACATCATATG | 1.03 |
| ACATCATTAA | 1.01 |
| ACATCGAAGG | 1 |
| ACATCGTTGG | 0.996 |
| ACATCTGA | 1.02 |
| ACATCTGCAT | 1.32 |
| ACATGAAATT | 1.02 |
| ACATGAATAT | 1.08 |
| ACATGAATGT | 1.02 |
| ACATGATGAT | 1 |
| ACATGCGTCC | 1.09 |
| ACATGGAATG | 1.01 |
| ACATGGGGCT | 1 |
| ACATGTGTAT | 0.972 |

| Sequence | switch fluorescence ratio |
| --- | --- |
| ACATTAATAT | 1.02 |
| ACATTATGAA | 1.03 |
| ACATTCAGTC | 0.996 |
| ACATTCATAA | 1.05 |
| ACATTCATAG | 1.01 |
| ACATTGAAGT | 1.02 |
| ACATTGACTC | 1.18 |
| ACATTGCCTA | 0.974 |
| ACATTGGCGC | 1.03 |
| ACATTGGGAA | 0.985 |
| ACATTGTTCG | 1.04 |
| ACATTGTTGA | 1 |
| ACATTTAACT | 1.04 |
| ACATTTCAAC | 1.01 |
| ACATTTGGCT | 1.04 |
| ACATTTTCAT | 1.03 |
| ACCAACGGTC | 1.09 |
| ACCAACGTCA | 1.32 |
| ACCAAGGGGG | 1.05 |
| ACCAAGTGAT | 1.04 |
| ACCAATTGG | 1.01 |
| ACCACACGGA | 1.51 |
| ACCACCGCAA | 1.64 |
| ACCACGGAAT | 1.11 |
| ACCACTGTCG | 1.03 |
| ACCAGAGCAA | 4.27 |

| Sequence | switch fluorescence ratio |
| --- | --- |
| ACCAGATTTC | 1.05 |
| ACCAGCATGG | 0.968 |
| ACCAGCCTAA | 1.08 |
| ACCAGCGGCT | 1.05 |
| ACCAGTATAA | 1.01 |
| ACCAGTCCAT | 1.04 |
| ACCAGTCG | 1.09 |
| ACCAGTCGC | 1 |
| ACCAGTTGCA | 1.03 |
| ACCAGTTGG | 0.995 |
| ACCATCGCCT | 1 |
| ACCATCGTGT | 1.05 |
| ACCATGTCCG | 0.978 |
| ACCATTCCGT | 1.12 |
| ACCCAAGAGT | 1.03 |
| ACCCAGAAG | 1.04 |
| ACCCCCCTGG | 1.16 |
| ACCCCGCCTC | 1.9 |
| ACCCCGTGGA | 1.03 |
| ACCCGCGGTG | 1.11 |
| ACCCGGGTTC | 1.03 |
| ACCCGTGAA | 1.11 |
| ACCCTAGCCA | 1.07 |
| ACCCTATAGC | 1.16 |
| ACCCTCAGGC | 1.16 |
| ACCCTGACCG | 1.17 |

| Sequence | switch fluorescence ratio |
| --- | --- |
| ACCCTTGGCT | 0.996 |
| ACCCTTTGCC | 1.05 |
| ACCGAAACAT | 1.11 |
| ACCGAAATGG | 1.22 |
| ACCGAACCCG | 1.47 |
| ACCGACAGGC | 1.03 |
| ACCGACGGT | 1.08 |
| ACCGAGGGGA | 1.03 |
| ACCGAGTTAA | 0.994 |
| ACCGATCGCC | 1.91 |
| ACCGCTGACT | 1.36 |
| ACCGGAGGTT | 1.01 |
| ACCGGATGCC | 1.04 |
| ACCGGCATTG | 1.02 |
| ACCGGGACTA | 1.05 |
| ACCGGTAATG | 0.984 |
| ACCGGTGG | 0.95 |
| ACCGGTTTGC | 0.996 |
| ACCGTAGGAG | 1.05 |
| ACCGTCATAG | 1.26 |
| ACCGTCCCTT | 1.08 |
| ACCGTGTAAT | 1.03 |
| ACCGTTGCGT | 1.01 |
| ACCGTTTCG | 0.966 |
| ACCTAAAGCC | 1.12 |
| ACCTACCAAA | 1.28 |

| Sequence | switch fluorescence ratio |
| --- | --- |
| ACCTACGAAG | 1.15 |
| ACCTACTTCT | 1.22 |
| ACCTAGCGCG | 1.02 |
| ACCTATATGA | 1.04 |
| ACCTATCGGC | 1.04 |
| ACCTATGAGA | 1.03 |
| ACCTCAACCC | 1.18 |
| ACCTCAGCGC | 1.43 |
| ACCTCAGGGC | 1.13 |
| ACCTCCTTAT | 1.06 |
| ACCTCGTCGC | 1.12 |
| ACCTCTAGTT | 1.05 |
| ACCTGAAAG | 1.04 |
| ACCTGAAGGG | 1 |
| ACCTGAGTAT | 1.03 |
| ACCTGCACAG | 1.23 |
| ACCTGCGGCA | 1.09 |
| ACCTGCTGAA | 1.06 |
| ACCTGGCTC | 1.26 |
| ACCTGGGGG | 0.987 |
| ACCTGGTGCA | 1.39 |
| ACCTGGTTGA | 1.03 |
| ACCTGTCGTT | 0.98 |
| ACCTGTGTCC | 1.15 |
| ACCTTAAGCG | 0.995 |
| ACCTTCGCAC | 3.85 |

| Sequence | switch fluorescence ratio |
| --- | --- |
| ACCTTCGCGT | 1.89 |
| ACCTTGAGAC | 1.07 |
| ACCTTGCGAT | 1.8 |
| ACCTTTACTA | 1.17 |
| ACCTTTAGGG | 1.03 |
| ACGAAAAACG | 1.02 |
| ACGAAAGTTC | 1.06 |
| ACGAACTGCT | 1.17 |
| ACGAAGGCTC | 1.12 |
| ACGAAGGTAC | 1.41 |
| ACGAATGTA | 1.01 |
| ACGAATTTTG | 0.98 |
| ACGACAGGAG | 0.95 |
| ACGACAGTAC | 1.81 |
| ACGACCGCAT | 3.52 |
| ACGACGATAG | 0.949 |
| ACGACGGAGG | 1.05 |
| ACGACGTATC | 1.16 |
| ACGACTCATT | 1.2 |
| ACGACTGGAT | 1.06 |
| ACGAGCCCCA | 1.35 |
| ACGAGCCTAT | 1.05 |
| ACGAGCGGGG | 1.04 |
| ACGAGCTCTT | 1.03 |
| ACGAGGTGGT | 1.02 |
| ACGAGTTGCA | 0.996 |

| Sequence | switch fluorescence ratio |
| --- | --- |
| ACGAGTTTCT | 1.04 |
| ACGAGTTTGC | 0.985 |
| ACGATAAAGG | 1.08 |
| ACGATAACAA | 1.22 |
| ACGATAACCT | 1.87 |
| ACGATAGTCT | 0.956 |
| ACGATCATGC | 1.18 |
| ACGATCCAGG | 5.36 |
| ACGATCCCCG | 1.44 |
| ACGATCGGAA | 1.11 |
| ACGATGCCTT | 1.04 |
| ACGATGCTGT | 1.09 |
| ACGATGTTGC | 1.04 |
| ACGATTCCCG | 1.02 |
| ACGATTTCTG | 1.02 |
| ACGCAAAGTT | 1.26 |
| ACGCAACAGG | 1.55 |
| ACGCAAGTT | 1.14 |
| ACGCACCATC | 1.54 |
| ACGCCAGGT | 1.85 |
| ACGCCGGTGT | 1.02 |
| ACGCCTAAGG | 1.08 |
| ACGCCTTCGG | 1.03 |
| ACGCCTTTAC | 4 |
| ACGCGAATCC | 1.59 |
| ACGCGCAGCT | 0.957 |

| Sequence | switch fluorescence ratio |
| --- | --- |
| ACGCGCAGTA | 1.07 |
| ACGCGGAATA | 1.09 |
| ACGCGGATGG | 1.06 |
| ACGCGGCATA | 1.09 |
| ACGCGGCCGT | 1.01 |
| ACGCGGCCTG | 1.06 |
| ACGCGGGGCC | 1.05 |
| ACGCGGTCGA | 1.1 |
| ACGCGGTTAT | 0.984 |
| ACGCTAGGCA | 1.11 |
| ACGCTCATTG | 1.01 |
| ACGCTCTTAT | 1.07 |
| ACGCTGACTG | 1.19 |
| ACGCTGCGTA | 1.03 |
| ACGCTGCGTG | 0.999 |
| ACGCTGTGTT | 0.995 |
| ACGCTTTTGT | 1 |
| ACGGAAAGGT | 1 |
| ACGGAACACC | 1.29 |
